{"source": "PubChem BioAssay AID192", "about": "(DTP/NCI, 2004)", "system": "BDF1 mice, B16 melanoma ip, median survival T/C", "assay": "NCI In Vivo Anticancer Drug Screen. Data for tumor model B16 Melanoma (intraperitoneal) in B6D2F1 (BDF1) mice", "settings": "endpoint: median survival time, higher = longer survival", "method": "The antitumor activity of compounds was measured in mice bearing transplantable tumors. Survival or tumor size were measured and the results are expressed as the measurement made in the treated group (T) divided by the measurement made in the vehicle treated control group (C). The tumor model used in this assay is B16 Melanoma (intraperitoneal) in B6D2F1 (BDF1) mice", "key": {"[1]": {"settings": "dose: 1.5 mg/kg/injection, schedule: Q01DX009 (ip), vehicle: saline"}, "[2]": {"settings": "dose: 50.0 mg/kg/injection, schedule: Q01DX009 (ip), vehicle: saline with Tween-80"}, "[3]": {"settings": "dose: 100.0 mg/kg/injection, schedule: Q01DX009 (ip), vehicle: saline with Tween-80"}}, "note": "Toxic doses and inconclusive results are not listed. Some entries of the source have several records that differ or are many. They are shown here; other results are not. The source may hold further records. Results that share an entry repeat one measurement (runs, samples, wells, individuals or studies). Brackets tell where a record comes from. The letters are not those of the source and start again with each entry. Numbered stars: 1 amine (or outer) side, 2 acyl side, 3 side chain; on linkers, the order of the positions; unused ones are H or OH. Bridge positions count the residues as written; N and C are the ends. Square brackets hold non-standard residues; d marks the D form. Peptide text beside a SMILES is read from it. I, II: the chains in the order shown. Actinocin(1to9) = Cc1c2oc3c(C)ccc(C(=O)[*:2])c3nc-2c(C(=O)[*:1])c(N)c1=O; NMeV = CN[CH](C(=O)O)C(C)C; Aze = O=C(O)[CH]1CCN1; Sar = CNCC(=O)O", "data": [{"smiles": "CO[C@@]12[C@H](COC(N)=O)C3=C(C(=O)C(C)=C(N)C3=O)N1C[C@@H]1N[C@@H]12", "values": [{"measurement": "T/C", "setting": "dose: 0.9 mg/kg/injection, schedule: Q01DX009 (ip), vehicle: saline", "value": "97 % of control and 169 % of control"}, {"measurement": "T/C", "setting": "[1]", "value": "42 % of control, 159 % of control, 166 % of control"}]}, {"smiles": "O=C1NC(c2ccccc2)C(=O)N1CCN(CCCl)CCCl", "note": "(stereo not given)", "values": [{"measurement": "T/C", "setting": "dose: 12.5 mg/kg/injection, schedule: Q01DX009 (ip), vehicle: saline", "value": "109 % of control and 161 % of control"}]}, {"smiles": "COc1cccc2c1C(=O)c1c(O)c3c(c(O)c1C2=O)C[C@@](O)(C(C)=O)C[C@@H]3OC1CC(N(Cc2ccccc2)Cc2ccccc2)C(O)C(C)O1", "note": "(stereo not given in full)", "values": [{"measurement": "T/C", "setting": "dose: 50.0 mg/kg/injection, schedule: Q01DX001 (ip), vehicle: water", "value": "121 % of control and 168 % of control"}]}, {"smiles": "CC1OC(OC2CC(O)(C(=O)CO)Cc3c(O)c4c(c(O)c32)C(=O)c2ccccc2C4=O)CC(N)C1O", "note": "(stereo not given)", "values": [{"measurement": "T/C", "setting": "dose: 360.0 micrograms/kg/injection, schedule: Q04DX003 (ip), vehicle: water", "value": "123 % of control and 157 % of control"}]}, {"smiles": "Cc1ccc(S(=O)(=O)N/N=C/C(=O)O)cc1", "values": [{"measurement": "T/C", "setting": "dose: 35.0 mg/kg/injection, schedule: Q01DX009 (ip), vehicle: saline with Tween-80", "value": "103 % of control and 185 % of control"}]}, {"smiles": "C1CN1c1nc(N2CC2)nc(N2CC2)n1", "values": [{"measurement": "T/C", "setting": "dose: 1.0 mg/kg/injection, schedule: Q01DX009 (ip), vehicle: saline with Tween-80", "value": "109 % of control, 122 % of control, 152 % of control"}]}, {"smiles": "O=CC(NC(=O)N(CCCl)N=O)C(O)C(O)C(O)CO", "note": "(stereo not given)", "values": [{"measurement": "T/C", "setting": "dose: 2.0 mg/kg/injection, schedule: Q01DX009 (ip), vehicle: saline", "value": "94 % of control and 172 % of control"}, {"measurement": "T/C", "setting": "dose: 45.0 mg/kg/injection, schedule: Q01DX001 (ip), vehicle: saline", "value": "88 % of control and 199 % of control"}]}, {"smiles": "COc1cccc2c1C(=O)c1c(O)c3c(c(O)c1C2=O)CC(O)(C(C)=O)CC3OC1CC(N)C(O)C(C)O1", "note": "(stereo not given)", "values": [{"measurement": "T/C", "setting": "dose: 2.9 mg/kg/injection, schedule: Q01DX009 (ip), vehicle: saline", "value": "123 % of control and 174 % of control"}, {"measurement": "T/C", "setting": "dose: 11.7 mg/kg/injection, schedule: Q04DX003 (ip), vehicle: saline", "value": "118 % of control and 175 % of control"}]}, {"smiles": "S=C(Nc1ccccc1)Nc1ccccc1S", "values": [{"measurement": "T/C", "setting": "dose: 400.0 mg/kg/injection, schedule: Q01DX009 (ip), vehicle: Klucel (hydroxypropylcellulose) (HPC)", "value": "93 % of control and 194 % of control"}]}, {"smiles": "CO[C@H]1C[C@](C)(O)Cc2cc3c(c(O)c21)C(=O)c1c(O)cc2c(c1C3=O)O[C@@H]1O[C@@]2(C)[C@H](O)[C@@H](N(C)C)[C@@H]1O", "values": [{"measurement": "T/C", "setting": "dose: 18.0 mg/kg/injection, schedule: Q04DX003 (ip), vehicle: lactic acid", "value": "115 % of control and 158 % of control"}]}, {"smiles": "CC1CCC(NC(=O)N(CCCl)N=O)CC1", "note": "(stereo not given)", "values": [{"measurement": "T/C", "setting": "dose: 16.0 mg/kg/injection, schedule: Q01DX009 (ip), vehicle: saline", "value": "86 % of control and 176 % of control"}]}, {"smiles": "COC(C(=O)C(O)C(C)O)C1Cc2cc3cc(OC4CC(OC(C)=O)C(OC5CC(O)C(OC)C(C)O5)C(C)O4)cc(O)c3c(O)c2C(=O)C1OC1CC(OC2CC(OC3CC(C)(O)C(OC(=O)C(C)C)C(C)O3)C(O)C(C)O2)C(O)C(C)O1", "note": "(stereo not given)", "values": [{"measurement": "T/C", "setting": "dose: 0.25 mg/kg/injection, schedule: Q01DX009 (ip), vehicle: saline", "value": "123 % of control, 151 % of control [sample A] and 167 % of control [sample B]"}]}, {"smiles": "COc1cccc2c1C(=O)c1c(O)c3c(c(O)c1C2=O)CC(O)(C(=O)CO)CC3OC1CC(N)C(O)C(C)O1", "note": "(stereo not given)", "values": [{"measurement": "T/C", "setting": "dose: 5.8 mg/kg/injection, schedule: Q01DX009 (ip), vehicle: saline", "value": "123 % of control and 200 % of control"}, {"measurement": "T/C", "setting": "dose: 11.5 mg/kg/injection, schedule: Q01DX001 (ip), vehicle: water", "value": "124 % of control and 159 % of control"}, {"measurement": "T/C", "setting": "dose: 53.3 mg/kg/injection, schedule: Q01DX001 (ip), vehicle: water", "value": "114 % of control and 193 % of control"}]}, {"smiles": "CCCCCCCCCCCCCCCCCCCCCC(=O)Nc1ccn(C2OC(CO)C(O)C2O)c(=O)n1", "note": "(stereo not given)", "values": [{"measurement": "T/C", "setting": "[2]", "value": "106 % of control and 155 % of control"}, {"measurement": "T/C", "setting": "[3]", "value": "119 % of control and 152 % of control"}]}, {"smiles": "O=P1(N(CCCl)CCCl)NCCCO1", "note": "(stereo not given)", "values": [{"measurement": "T/C", "setting": "dose: 100.0 mg/kg/injection, schedule: Q04DX003 (ip), vehicle: saline", "value": "99 % of control and 164 % of control"}]}, {"smiles": "O=c1[nH]c(=O)n(C2CC(O)C(CO)O2)cc1F", "note": "(stereo not given)", "values": [{"measurement": "T/C", "setting": "[2]", "value": "122 % of control and 176 % of control"}]}, {"smiles": "COc1ccc2c(c1OC(C)=O)-c1cc(O)cc3c1C(C2)N(C(=O)CN(CCCl)CCCl)CC3", "note": "(stereo not given)", "values": [{"measurement": "T/C", "setting": "dose: 50.0 mg/kg/injection, schedule: Q04DX003 (ip), vehicle: DMSO", "value": "98 % of control and 170 % of control"}]}, {"smiles": "CCC1(O)CC2CN(CCc3c([nH]c4ccccc34)C(C(=O)OC)(c3cc4c(cc3OC)N(C)C3C(O)(C(=O)NCCSSCCNC(=O)C5(O)C(O)C6(CC)C=CCN7CCC8(c9cc(C%10(C(=O)OC)CC%11CN(CCc%12c%10[nH]c%10ccccc%12%10)CC(O)(CC)C%11)c(OC)cc9N(C)C58)C76)C(O)C5(CC)C=CCN6CCC43C65)C2)C1", "note": "(stereo not given)", "values": [{"measurement": "T/C", "setting": "dose: 389.0 micrograms/kg/injection, schedule: Q04DX003 (ip), vehicle: saline", "value": "118 % of control and 156 % of control"}]}, {"smiles": "N[C@@H](Cc1ccc(N(CCCl)CCCl)cc1)C(=O)O", "values": [{"measurement": "T/C", "setting": "dose: 3.0 mg/kg/injection, schedule: Q01DX009 (ip), vehicle: carboxymethylcellulose (CMC)", "value": "107 % of control and 197 % of control"}]}, {"smiles": "COC1C(C)OC(OC2CC(C)(O)Cc3cc4c(c(O)c32)C(=O)c2c(O)cc3c(c2C4=O)OC2OC3(C)C(O)C(N(C)C)C2O)C(OC)C1(C)OC", "note": "(stereo not given)", "values": [{"measurement": "T/C", "setting": "dose: 3.24 mg/kg/injection, schedule: Q04DX003 (ip), vehicle: lactic acid", "value": "115 % of control and 191 % of control"}]}, {"smiles": "ClCC[N+]12CC[N+](CCCl)(CC1)C2", "values": [{"measurement": "T/C", "setting": "[3]", "value": "121 % of control and 157 % of control"}]}, {"smiles": "COC1=NCN=C2SC=C(N)N=C12", "values": [{"measurement": "T/C", "setting": "dose: 25.0 mg/kg/injection, schedule: Q01DX009 (ip), vehicle: saline", "value": "94 % of control, 109 % of control, 200 % of control"}]}, {"smiles": "Cc1c2oc3c(C)ccc(C(=O)NC4C(=O)NC(C(C)C)C(=O)N5CCCC5C(=O)N(C)CC(=O)N(C)C(C(C)C)C(=O)OC4C)c3nc-2c(C(=O)NC2C(=O)NC(C(C)C)C(=O)N3CCC3C(=O)N(C)CC(=O)N(C)C(C(C)C)C(=O)OC2C)c(N)c1=O", "note": "(stereo not given) (I: TV[Aze][Sar][NMeV] / II: TVP[Sar][NMeV]; ester I:1-I:C, II:1-II:C; linker I:N-II:N via Actinocin(1to9); configuration not given here)", "values": [{"measurement": "T/C", "setting": "dose: 0.45 mg/kg/injection, schedule: Q04DX003 (ip), vehicle: saline + alcohol", "value": "123 % of control and 168 % of control"}, {"measurement": "T/C", "setting": "dose: 0.6 mg/kg/injection, schedule: Q04DX003 (ip), vehicle: saline + alcohol", "value": "89 % of control and 164 % of control"}]}, {"smiles": "CCN(CC)CCCC(C)Nc1c2ccc(Cl)cc2nc2ccc(OC)cc12", "note": "(stereo not given)", "values": [{"measurement": "T/C", "setting": "dose: 64.0 mg/kg/injection, schedule: Q01DX009 (ip), vehicle: saline with Tween-80", "value": "121 % of control and 171 % of control"}]}, {"smiles": "O=C1NC2(CCCCC2)C(=O)N1CCN(CCCl)CCCl", "values": [{"measurement": "T/C", "setting": "[1]", "value": "123 % of control and 158 % of control"}, {"measurement": "T/C", "setting": "dose: 6.0 mg/kg/injection, schedule: Q01DX009 (ip), vehicle: saline", "value": "112 % of control and 155 % of control"}]}, {"smiles": "O=P1(NCCCl)OCCCN1CCCl", "note": "(stereo not given)", "values": [{"measurement": "T/C", "setting": "dose: 200.0 mg/kg/injection, schedule: Q02DX009 (ip), vehicle: saline", "value": "90 % of control and 160 % of control"}]}, {"smiles": "OC(CCl)CN1CC[N+]2(CC1)CC[N+]1(CCN(CC(O)CCl)CC1)CC2", "note": "(stereo not given)", "values": [{"measurement": "T/C", "setting": "dose: 150.0 mg/kg/injection, schedule: Q01DX009 (ip), vehicle: water", "value": "124 % of control and 154 % of control"}]}]}
